Measured values as given in US20260209325A1, “SELECTIVE AND POTENT INHIBITORY ANTIBODIES OF MYOSTATIN ACTIVATION” (SCHOLAR ROCK, INC., priority 2022, published 2026).

How the values were obtained:
[1] = Ab109 with 0.01 or 0.04 mg/kg semaglutide in DIO mice (Example 9); format: in vivo, mouse
Experimental: Male C57/BL6 male mice (n=8/group) were placed on a 60% high fat diet at […] of age and maintained on the 60% high fat diet until 21 weeks of age (Groups 1-12), at which time the study began (day −7). On day −7, animals in groups 1-12 were switched to a 45% high fat diet and maintained on the 45% high fat diet until the animals were terminated. […] Body weight was measured three times per week and qNMR measurements of lean mass and fat mass were obtained pre-dose on day 0 and on days 7, 14 and 21. Fasting glucose was measured on day 18 after a 4 hour fast.
Animals in groups 3-12 were dosed with semaglutide daily for 3 weeks, then terminated. Animals in groups 1, 3, and 4 were treated with IgG control antibody, and those in groups 2, 5-12 were treated with myostatin activation inhibiting antibody treatment, for 3 weeks.
At termination, left gastrocnemius and quadriceps muscles were removed and frozen; the liver was weighed, one lobe was frozen; epididymal (perigonadal) adipose tissue was removed and weighed; inguinal (subcutaneous) adipose tissue was removed and weighed; and a terminal serum bleed was obtained.

[2] = semaglutide plus Ab109 or Ab141 in diet-induced obesity mice (Example 5); format: in vivo, mouse; conditions: with semaglutide 0.040 mg/kg daily; FIGS. 13A-B
Experimental: Male C57/BL6 mice were a high-fat diet containing 60% fat then switched to a diet containing 45% fat. […] Body weight and body composition determined by qNMR were recorded at days 7, 14, and 21 after dosing. Gastrocnemius weight, inguinal, and perigonadal fat pad weights were recorded at the end of the study. Liver and terminal blood were collected to measure the levels of glucose and insulin.

[3] = high fat diet mice treated with metformin and antibody (Example 4); format: in vivo, mouse; conditions: for fat mass gain: 45% high fat diet, FIG. 12A
Experimental: Male C57/BL6 mice were fed a 60% high fat diet beginning at six weeks of age. At nineteen weeks of age (day 0), the mice were switched to a 45% high fat diet for 63 days. […] These mice were further divided into groups that received either 50 mg/kg of metformin or no metformin (Table 22a).
Body weight and food intake were monitored three times per week throughout the study. On days 7, 35, 49, and 63, body composition was determined by qNMR, and glucose, ketones, and insulin were measured. At the end of the study on day 63, body composition was determined by qNMR; glucose, ketones, and insulin were measured, gastrocnemius muscle, whole liver, epididymal, and subcutaneous adipose tissue was collected and weighed.
Male C57/BL6 mice (n=8/group) were fed a 60% HFD until week 18, at which time they are switched to a 45% HFD for 7 days. At day 7, animals in group 3-6 were treated with 50 mg/kg/day metformin, given orally throughout the remainder of the study.
Body weight was measured three times per week; lean mass and fat mass were measured by qNMR on days 7, 35, 49, 63, and 77; serum glucose was also measured on days 7, 35, 49, 63, and 77; serum insulin was measured on days 49, 63, and 77. A glucose tolerance test (GTT) and an insulin tolerance test (ITT) was administered between day 56 and day 63.

[4] = DIO mice on high fat diet treated with liraglutide and antibody (Example 3); format: in vivo, mouse; conditions: for body weight: high fat diet mice, liraglutide daily, antibody weekly for four weeks, FIG. 11A-D; for inguinal and perigonadal fat pad fat mass: in combination with liraglutide; for gastrocnemius mass / change in lean mass / fat mass: with liraglutide; for gastrocnemius mass: antibody 20 mg/kg, FIG. 11F; for change in lean mass: FIG. 11E; for fat mass: FIG. 11G
Experimental: Caloric restriction causes loss of both fat and lean mass; inhibiting myostatin maintains lean mass during weight loss. […] Changes in body composition were assessed by qNMR readout for fat mass and lean mass; gastrocnemius weight; and inguinal and perigonadal fat pad weight.
Ten-week-old male mice were fed formula D12492 ad lib, a high-calorie diet comprised of 60% fat, and remained on this diet throughout the study. The antibodies were dosed weekly and liraglutide was dosed daily. Body composition and body weight were measured by qNMR prior to dosing, at 2 weeks, and at the end of the dosing period body weight. Gastrocnemius muscles were removed, and their weights were measured after the animals were terminated.

free latent myostatin = molecular target: T1, free latent myostatin (Mus musculus, UniProt O08689); experiment: serum free latent myostatin in obese mice with or without semaglutide (Example 8); format: in vivo; conditions: in presence or absence of semaglutide, day 22; FIG. 16C
T1 construct: from tissue; host or cells: mouse serum
From the text: In another embodiment, a pharmacodynamic assay, can be performed by measuring the binding of the antibodies to serum free latent myostatin (i.e., circulating latent myostatin that is not bound by the antibody). Such an assay may immobilize streptavidin, bind a biotinylated antibody known to bind latent myostatin, add latent myostatin, and test the ability of an antibody to bind to the free latent myostatin by labeling the test antibody with a detectable marker. […] In such an embodiment, the detection range of the assay may be in the nanogram range, e.g., 0.1 ng/ml-750 ng/ml, 1.0 ng/ml-500 ng/ml, or 3.0 ng/ml-500 ng/ml, e.g., 3.9-500 ng/mL. […]
Male 19 week old C7/BL6 mice fed a high fat diet to induce obesity (DIO-B6-M mice, were evaluated for the effect of the combination of antibody and semaglutide on the exposure of the antibody to the target antigen (PK) and the total myostatin serum level (PD), as shown in Table 25. Animals were dosed with antibody intraperitoneally on days 0, 7, and 14 and were dosed with semaglutide subcutaneously daily throughout the study. Exposure of the antibody to immobilized promyostatin was determined by ELISA. Total serum myostatin was also measured by ELISA. The study concluded on day 22, when terminal bleeds were obtained.

B1: Ab109: anti-pro/latent myostatin antibody; CDR sequences in Table 2d (antibody)
heavy: EVQLVESGGGLVQPGGSLRLSCAASGFTFSSYGMSWVRQAPGKGLELVASFTGSGGTYYPDSVKGRFTISRDNAKNSLYLQMNSLRAEDTAVYYCARDLLIRFLEWSHYYGMDVWGQGTTVTVSSASTKGPSVFPLAPCSRSTSESTAALGCLVKDYFPEPVTVSWNSGALTSGVHTFPAVLQSSGLYSLSSVVTVPSSSLGTKTYTCNVDHKPSNTKVDKRV[human IgG4 Fc with S228P (EU numbers) left out]
light: DIVMTQSPLSLPVTPGEPASISCRSSQSLLHSSGHNFLHWYLQKPGQSPQLLIYEVSNRVSGVPDRFSGSGSGTDFTLKISRVEAEDVGVYYCMQQTQYPPTFGGGTKVEIKRTVAAPSVFIFPPSDEQLKSGTASVVCLLNNFYPREAKVQWKVDNALQSGNSQESVTEQDSKDSTYSLSSTLTLSKADYEKHKVYACEVTHQGLSSPVTKSFNRGEC
body weight ([1]; 45% high fat diet, semaglutide 0.01 or 0.04 mg/kg daily, 3 weeks, FIGS. 18A-B): maintained steady body weight | increase in lean mass ([1]; Ab109 added to 0.01 mg/kg semaglutide, FIG. 20B): 4% to 6% | lean mass change ([1]; Ab109 added to 0.04 mg/kg semaglutide, FIG. 20A): close-to-neutral lean mass change at 3 mg/kg and 10 mg/kg of Ab109 | lean mass ([1]; Ab109 in combination with semaglutide, FIG. 20C): preserved lean mass at doses of 1, 3, and 10 mg/kg Ab109 | quadriceps muscle loss ([1]; Ab109 in combination with semaglutide, FIG. 21A): prevented this muscle loss | gastrocnemius muscle loss ([1]; Ab109 in combination with semaglutide, FIG. 21B): prevented this muscle loss | perigonadal fat pad loss ([1]; Ab109 in combination with semaglutide, FIG. 22A): only improved fat pad loss at select doses | inguinal fat pad loss ([1]; Ab109 in combination with semaglutide, FIG. 22B): improved inguinal fat pad loss | fat mass gain ([1]; Ab109 monotherapy without semaglutide, FIG. 19A): 7% | increase in lean mass ([1]; Ab109 treatment alone, FIG. 20C): 8.3% | fat mass loss ([1]; semaglutide 0.01 mg/kg with Ab109, FIG. 19B): improved fat mass loss compared to those treated with 0.01 mg/kg semaglutide and IgG control | fat mass loss ([1]; semaglutide 0.04 mg/kg alone or with Ab109, FIG. 19A, 19C): improved fat mass loss compared to IgG control with semaglutide; also recorded: improved fat mass loss in a dose-dependent manner | fat mass loss (subcutaneous and epididymal adipose tissue weight) [2]: increased fat mass loss as compared to Ab109 or Ab141 alone | fat mass gain ([3]; combination of Ab109 and metformin 50 mg/kg): stopped the fat mass gain | fat mass gain ([3]; monotherapy): Neither metformin alone nor Ab109 alone showed this effect | lean mass ([3]; with or without metformin, FIG. 12B): gained more lean muscle mass regardless of whether they received metformin | body weight [4]: lost more body weight compared to those treated with Ab2; also recorded: attenuated the increase in body weight compared to the Ig control in the presence of liraglutide; also recorded: lost slightly less weight than those treated with liraglutide and an IgG control | inguinal and perigonadal fat pad fat mass [4]: reduced the fat mass in the subcutaneous inguinal fat pad and reduced the fat mass in the visceral perigonadal fat pad | gastrocnemius mass [4]: more effective at increasing gastrocnemius mass than Ab2 | change in lean mass [4]: lean mass increased; also recorded: greater increases in lean mass compared to Ab2 | fat mass [4]: decreased fat mass to a greater extent than Ab2 | serum free latent myostatin (not bound by antibody) (free latent myostatin): reduced below the level of quantitation

B2: Ab130: anti-pro/latent myostatin antibody; CDR sequences in Table 2d (antibody)
heavy: EVQLVESGGGLVQPGGSLRLSCAASGFTFTSYGMSWVRQAPGKGLELVASITGSGGETYYPDSVKGRFTISRDNAKNSLYLQMNSLRAEDTAVYYCARDLLVRFLEWSHYYGMDVWGQGTTVTVSSASTKGPSVFPLAPCSRSTSESTAALGCLVKDYFPEPVTVSWNSGALTSGVHTFPAVLQSSGLYSLSSVVTVPSSSLGTKTYTCNVDHKPSNTKVDKRV[human IgG4 Fc with S228P (EU numbers) left out]
light: DIVMTQSPLSLPVTPGEPASISCRSSQSLLHSSGHNFLHWYLQKPGQSPQLLIYETSNRAPGIPDRFSGSGSGTDFTLKISRVEAEDVGVYYCQQATQFPRPFGGGTKVEIKRTVAAPSVFIFPPSDEQLKSGTASVVCLLNNFYPREAKVQWKVDNALQSGNSQESVTEQDSKDSTYSLSSTLTLSKADYEKHKVYACEVTHQGLSSPVTKSFNRGEC
body weight [4]: lost more body weight compared to those treated with Ab2; also recorded: attenuated the increase in body weight compared to liraglutide alone; also recorded: lost slightly less weight than those treated with liraglutide and an IgG control | inguinal and perigonadal fat pad fat mass [4]: reduced the fat mass in the subcutaneous inguinal fat pad and reduced the fat mass in the visceral perigonadal fat pad | gastrocnemius mass [4]: more effective at increasing gastrocnemius mass than Ab2 | change in lean mass [4]: lean mass increased; also recorded: greater increases in lean mass compared to Ab2 | fat mass [4]: decreased fat mass to a greater extent than Ab2

Entries after “also recorded” stand apart in the source; their conditions may differ.
